Data on 172 sequences can be found in PMC10668032.

The list shows a part of the results. At the low end of the ranking the order means little.

The test has as its target SIX1 homeodomain (reference allele) (UniProt Q15475). The experiment in a line: universal protein binding microarray. The settings on record: Universal all-10-mer PBM (8x60K, AMADID 030236), 300 nM GST-tagged protein, Alexa Fluor 488 anti-GST; buffer, salt, pH and temperature not stated; high values mean tight binding; most listed sequences are background and not binding sites; double strand, one strand shown.
On to GATGTTAA, for which the binding signal was -0.22 E-score.

GGCGGGGA: the binding signal worked out at 0.174 E-score.

As for CTGTTTCC, the binding signal is -0.321 E-score.

Consider ACTAATCG, for which the binding signal was -0.0143 E-score.

In the case of TGACCCAA, the binding signal was -0.181 E-score.

For the sequence CGGCAAGC, the binding signal is -0.14 E-score.

For ACGCGGTA, the binding signal was determined as 0.123 E-score.

As for GTATTGGA, the binding signal was determined as 0.0534 E-score.

As for GATATATA, the binding signal came out at 0.377 E-score.

For the sequence GGCTTCTA, the binding signal is 0.0155 E-score.

In the case of GGTCCGCA, the binding signal is -0.124 E-score.

For CCGGGAGA, the binding signal is 0.177 E-score.

Regarding CGGCCTAG, the binding signal is -0.142 E-score.

For CGAGTCAA, the binding signal is -0.209 E-score.

For AATACGCT, the binding signal is 0.124 E-score.

Consider CAAGCAAA, for which the binding signal was -0.171 E-score.

As for CGATCAGC, the binding signal was determined as 0.0997 E-score.

On to CCCTGGAC, for which the binding signal worked out at 0.0723 E-score.

Turning to CGATAAAG, the binding signal was -0.219 E-score.

Turning to CCGGTAAA, the binding signal was 0.157 E-score.

AGCGCGTA: the binding signal was -0.0971 E-score.

Turning to ACAAGGTA, the binding signal was determined as 0.192 E-score.

Regarding TATGTGAA, the binding signal was -0.0277 E-score.

Regarding AATGGCAC, the binding signal is -0.25 E-score.

As for GACTGGCC, the binding signal was -0.102 E-score.

Take CGCCAACC: the binding signal is -0.0666 E-score.

CACAGGTA: the binding signal is 0.0285 E-score.

Take ACCTAGCT: the binding signal was 0.083 E-score.

With ATCAGCTG, the binding signal was 0.154 E-score.

Consider CAGTTCGA, for which the binding signal was 0.0323 E-score.

For the sequence AACAGTGA, the binding signal was -0.0614 E-score.

Turning to AGGGAGGC, the binding signal stood at 0.0479 E-score.

Turning to CCTTTGAC, the binding signal was -0.0851 E-score.

Regarding GCTCGTCC, the binding signal was -0.199 E-score.

Turning to CCTGAAAG, the binding signal is -0.01 E-score.

As to AATCCAAG, the binding signal is 0.0791 E-score.

On to CGGACAAG, for which the binding signal came out at 0.0911 E-score.

Consider ACGGAATA, for which the binding signal worked out at 0.118 E-score.

For AACTGCTC, the binding signal is -0.0639 E-score.

Regarding ACTCCTAC, the binding signal was -0.177 E-score.

For the sequence CTTGCCCC, the binding signal was -0.184 E-score.

Turning to GAGGCACC, the binding signal is -0.218 E-score.

For the sequence ACAATCAG, the binding signal was -0.0388 E-score.

Consider CGGGTACC, for which the binding signal was found to be 0.0525 E-score.

Regarding CAGGGCTA, the binding signal is -0.0825 E-score.

As to TAAGCCGA, the binding signal amounted to 0.058 E-score.

In the case of CCGCGATC, the binding signal was found to be 0.354 E-score.

Turning to CCGACACC, the binding signal turned out to be 0.438 E-score.

Take GAAAGCCA: the binding signal is -0.297 E-score.

With CTATCGTC, the binding signal was 0.163 E-score.

Consider CGAGTATC, for which the binding signal was found to be 0.435 E-score.

On to GACCAATA, for which the binding signal was -0.00477 E-score.

For the sequence AATCGCCG, the binding signal was -0.151 E-score.

Turning to CTATACAA, the binding signal was 0.0835 E-score.

As to ACACGCTG, the binding signal is 0.0255 E-score.

Consider GGCCTGAC, for which the binding signal was -0.115 E-score.

With TGCTTTAA, the binding signal was -0.0245 E-score.

Consider ACGCAACG, for which the binding signal is -0.123 E-score.

As for ATTATATA, the binding signal is 0.254 E-score.

Take CCCACAGC: the binding signal is -0.116 E-score.

In the case of ACAAAAGT, the binding signal is -0.0794 E-score.

For ATTGAAGA, the binding signal was -0.013 E-score.

For the sequence GTCAGGTA, the binding signal was 0.106 E-score.

With AAGTGTCA, the binding signal came out at 0.143 E-score.

For the sequence AAATGAAC, the binding signal was -0.242 E-score.

In the case of AACCTGCA, the binding signal was -0.0641 E-score.

Regarding CTACTCGC, the binding signal was -0.04 E-score.

CGCTATAG: the binding signal was -0.085 E-score.

As to GCATTTAC, the binding signal is -0.238 E-score.

On to CGATCATC, for which the binding signal is 0.317 E-score.

Regarding ATTCCTCG, the binding signal stood at 0.109 E-score.

As for AGATGTGC, the binding signal is -0.146 E-score.

As for AGTCACAC, the binding signal is -0.0139 E-score.

Regarding ACATAAGC, the binding signal is -0.0678 E-score.

Consider ACAGTAGT, for which the binding signal was -0.0179 E-score.

Consider CCTCACGA, for which the binding signal was -0.0794 E-score.

As to GGAAAGTA, the binding signal was -0.216 E-score.

GACACTCA: the binding signal was 0.132 E-score.

Consider CCGTTATC, for which the binding signal is 0.0796 E-score.

Take TAATAATA: the binding signal worked out at 0.225 E-score.

Consider GACTTACA, for which the binding signal was -0.0781 E-score.

Regarding CCCTATAG, the binding signal is 0.0903 E-score.

As for GAGGTTCA, the binding signal was -0.0278 E-score.

As to ACCAGTTA, the binding signal is -0.103 E-score.

As for AAGGTAGT, the binding signal is -0.108 E-score.

On to CGGCCTCA, for which the binding signal is -0.256 E-score.

Take CACCAGTA: the binding signal was found to be 0.0206 E-score.

Take CGAAGCAC: the binding signal is -0.159 E-score.

In the case of AGAGACCC, the binding signal is -0.0422 E-score.

Regarding ATGGACAT, the binding signal is -0.0332 E-score.

As for ATTCAATA, the binding signal turned out to be 0.161 E-score.

TCTGATAA: the binding signal is 0.0127 E-score.

For the sequence CCACCAAG, the binding signal is -0.0218 E-score.

For the sequence ATTTCCTG, the binding signal is -0.0383 E-score.

CACGCAAC: the binding signal is -0.166 E-score.

Regarding AAACAAGC, the binding signal is -0.22 E-score.

For CCCTCCTC, the binding signal worked out at 0.129 E-score.

For the sequence CGCTCATC, the binding signal was -0.0638 E-score.

As to CAGAAGCA, the binding signal was -0.266 E-score.

On to AGCCCTGC, for which the binding signal amounted to 0.0108 E-score.

For the sequence GACCCGCA, the binding signal was determined as 0.0115 E-score.

Regarding GTCCAGCA, the binding signal is -0.233 E-score.

On to CACTTCGG, for which the binding signal is -0.0299 E-score.

In the case of ACGCTCGG, the binding signal was -0.105 E-score.

In the case of TCCAAGCA, the binding signal was -0.0701 E-score.

With TACCTACA, the binding signal was 0.162 E-score.

With AACAGGAG, the binding signal is -0.042 E-score.

On to GTAGAAAC, for which the binding signal was -0.141 E-score.

For the sequence CGATCCCA, the binding signal came out at 0.346 E-score.

Consider ATGCAAAG, for which the binding signal amounted to 0.0304 E-score.

Consider ATAAGACC, for which the binding signal is -0.183 E-score.

Turning to AGCCCAAT, the binding signal was -0.165 E-score.

Turning to AGTGTCAA, the binding signal was found to be 0.168 E-score.

With CGTCATAG, the binding signal was -0.378 E-score.

Take AAGTATCG: the binding signal was determined as 0.369 E-score.

In the case of ATTATCAA, the binding signal amounted to 0.165 E-score.

As for AGTCCTAG, the binding signal is -0.197 E-score.

As for CCCGGGAA, the binding signal came out at 0.0874 E-score.

For ATCCGCTG, the binding signal was 0.305 E-score.

For the sequence ACGCAGGG, the binding signal is -0.0604 E-score.

Take GAACGCAC: the binding signal was -0.193 E-score.

In the case of AGTACTGA, the binding signal was -0.033 E-score.

On to AATCCACT, for which the binding signal is 0.0419 E-score.

CCTGAGTC: the binding signal is -0.0643 E-score.

For ATCGGATA, the binding signal is 0.423 E-score.

Turning to AAGTCCGC, the binding signal is -0.188 E-score.

Turning to GGGAGGAC, the binding signal is -0.207 E-score.

Turning to GGTAGAAA, the binding signal was -0.137 E-score.

On to GGGCTTCA, for which the binding signal is -0.196 E-score.

With CGACGGCA, the binding signal was -0.0214 E-score.

With AACGGTCC, the binding signal was -0.385 E-score.

With GACCTCTA, the binding signal was -0.243 E-score.

For AGGAACAG, the binding signal was -0.166 E-score.

On to TACGTAGA, for which the binding signal was -0.00441 E-score.

For the sequence ATTCGCGG, the binding signal was found to be 0.0131 E-score.

Turning to TAACCTAA, the binding signal was -0.149 E-score.

As for ACGTTTCG, the binding signal is -0.118 E-score.

Consider CACATTCA, for which the binding signal is -0.207 E-score.

On to TTTTAAAA, for which the binding signal was 0.0226 E-score.

Regarding AAACATAG, the binding signal was -0.334 E-score.

As for AGGAATAT, the binding signal stood at 0.199 E-score.

Regarding CAGCACCA, the binding signal was -0.0959 E-score.

Take AAACCCCT: the binding signal amounted to 0.0625 E-score.

As to AACCGGCC, the binding signal is -0.16 E-score.

In the case of ACGTTTAG, the binding signal was -0.113 E-score.

ACTAGGGA: the binding signal is -0.114 E-score.

Consider GAGCGTAA, for which the binding signal was -0.198 E-score.

With CCATCTAC, the binding signal turned out to be 0.161 E-score.

TCCGAGGA: the binding signal was found to be 0.0698 E-score.

For CTACGTCA, the binding signal was -0.0636 E-score.

Regarding TCCCGACA, the binding signal amounted to 0.0528 E-score.

With ATGAACGA, the binding signal is 0.0796 E-score.

For the sequence ATCAGGAT, the binding signal turned out to be 0.394 E-score.

As for ATGAACTC, the binding signal is -0.0936 E-score.

With ATGCCACA, the binding signal is -0.0216 E-score.

Consider AAGGTTAT, for which the binding signal was -0.0395 E-score.

In the case of ATAAACGA, the binding signal worked out at 0.0453 E-score.

Turning to CTGAGCCC, the binding signal was found to be 0.161 E-score.

For CTCAGTGC, the binding signal was -0.0169 E-score.

As for AGTCCGTC, the binding signal was -0.19 E-score.

Take GAAAGGTC: the binding signal is -0.117 E-score.

Regarding CATTATTA, the binding signal is -0.114 E-score.

With ACCGCGTA, the binding signal is -0.00515 E-score.

As to CACATGAG, the binding signal was -0.189 E-score.

Take CACCTACG: the binding signal worked out at 0.0118 E-score.

CAGGTTTC: the binding signal was -0.0245 E-score.

As to CAAACTAG, the binding signal is 0.0333 E-score.

Consider CGGGGACC, for which the binding signal was -0.139 E-score.

CATCTGTA: the binding signal is -0.057 E-score.

With AAATTGGC, the binding signal is -0.22 E-score.

AAGCAAAA: the binding signal is -0.27 E-score.

GGAACACA: the binding signal was -0.131 E-score.
